Results taken from ChEMBL document CHEMBL4888484, “Replenishing the malaria drug discovery pipeline: Screening and hit evaluation of the MMV Hit Generation Library 1 (HGL1) against asexual blood stage Plasmodium falciparum ,using a nano luciferase reporter read-out” (2022).
In all, about 150,000 compounds went through this assay and about 540 (0.36%) showed an effect of 50% or more. The list shows a part of the results.

What follows are molecules tested on Plasmodium falciparum (assay: Primary screen in NF54 nanoGlo assay, in single point, at 2uM, 72h; a lower Z score goes with more inhibition). Conditions: timepoint 72 hour.
Assay type: functional, Erythrocyte
With `CC(C)(C)CC(=O)N1CCC2(CC1)OC[C@@H](C(=O)N1CCCC1)N2C(=O)c1ccc(F)cc1` the “% Inhibition” value was -4% and the Z score was 0.49.
`Cc1ccc(Oc2cc(CNS(=O)(=O)N3CC(C)OC(C)C3)ccn2)cc1C` (centres undefined) was tested, and the “% Inhibition” value was -2% and the Z score was 0.32.
`C1=CC[C@@H](CNc2cccc(Cn3cnnc3)c2)CC1` was tested, and the “% Inhibition” value was -4% and the Z score was 0.45.
In the case of `CCOc1ccc(CCNC(=O)c2ccc(-n3nnc4cccnc43)cc2)cc1OCC`, the “% Inhibition” value is reported as -1% and the Z score is reported as 0.1.
With `CCC(=O)Nc1ccnc(C(C)(C)C)c1` the “% Inhibition” value was -3% and the Z score was 0.37.
For `COCCC(=O)N1CCN(C[C@H](O)COc2cccc3ccccc23)CC1`, the “% Inhibition” value was -8% and the Z score was 1.11.
With `CCC1=N[C@@H](c2ccccc2Cl)N(O)C1(C)C` the “% Inhibition” value was -2% and the Z score was 0.42.
In the case of `CCCNC(=O)NCCn1nc(-c2ccncc2)cc1C`, the “% Inhibition” value is reported as -1% and the Z score is reported as 0.17.
For `Cn1cc(CCC(=O)N2CC[C@@](O)(c3ccccc3)[C@H]3CCCC[C@@H]32)cn1`, the “% Inhibition” value was -8% and the Z score was 0.89.
`COc1ccc(OC[C@@H](O)CN(C)C)c(CN2CCc3sccc3C2)c1` was tested, and the “% Inhibition” value was -7% and the Z score was 1.42.
`COc1cncc(C(Nc2cc(OC)nc(OC)n2)[C@H]2C[C@H](O)C2)c1` (some centres undefined) was tested, and the “% Inhibition” value was -6% and the Z score was 0.61.
With `CCN(CC)CCN(CC)C(=O)c1cnn(-c2nccc(-c3cccs3)n2)c1C` the “% Inhibition” value was -6% and the Z score was 1.12.
With `Cc1ccc2c(c1)c(C)c(C)n2C[C@H](O)CN1C(=O)CNC1=O` the “% Inhibition” value was 35% and the Z score was -3.93.
`Cc1ccc(S(=O)(=O)N2CCC[C@H](Cn3cnc4cccnc43)C2)cc1` was tested, and the “% Inhibition” value was -14% and the Z score was 2.16.
For `Cc1ccc2c(c1)C(NC(=O)NC1C3CCOC3C13CCC3)CO2` (centres undefined), the “% Inhibition” value was -11% and the Z score was 1.42.
With `O=C(CN1C=NS(=O)(=O)c2ccccc21)Nc1ccc(Cl)cc1` the “% Inhibition” value was -11% and the Z score was 1.34.
In the case of `CC(C)n1ncnc1NC(=O)C[C@H]1CCOC1`, the “% Inhibition” value is reported as -11% and the Z score is reported as 1.41.
In the case of `NC(=O)CCN(Cc1ccccc1)Cc1cncn1C1CCCCC1`, the “% Inhibition” value is reported as -5% and the Z score is reported as 0.91.
`CCCN1CCN(CCNC(=O)c2cccc(Nc3ccnc(-c4ccc(C)cc4)n3)c2)CC1` was tested, and the “% Inhibition” value was -16% and the Z score was 1.45.
With `CCn1cc(C)c(C(=O)O)c1CC(=O)N1CCN(c2ccccc2OC)CC1` the “% Inhibition” value was -12% and the Z score was 1.53.
For `Cc1ncsc1CCS(=O)(=O)N1CCC(n2ccnc2)CC1`, the “% Inhibition” value was -3% and the Z score was 0.56.
`O=C(CNS(=O)(=O)c1cccc(Br)c1)NCCCc1ccccc1` was tested, and the “% Inhibition” value was 1% and the Z score was -0.2.
With `Cc1c2c(n(Cc3cccc(C(F)(F)F)c3)c1C(=O)NCc1cccc(C(F)(F)F)c1)CCCC2` the “% Inhibition” value was 4% and the Z score was -0.52.
`O=C(NCC(=O)N1CCC[C@H]1CN1CCOCC1)c1cccc(Cl)c1` was tested, and the “% Inhibition” value was 8% and the Z score was -1.63.
`COc1ccccc1CCNC(=O)c1ccccc1N1CCC(NS(=O)(=O)c2ccc(F)cc2)CC1` was tested, and the “% Inhibition” value was 11% and the Z score was -1.5.
For `CC[C@@H](C(=O)NC1CCN(C)CC1)N(c1ccc(F)cc1)S(C)(=O)=O`, the “% Inhibition” value was 19% and the Z score was -2.23.
`Cn1cc([C@H]2CC3(C)NC(=O)C2C(=O)N3)c2ccccc21` was tested, and the “% Inhibition” value was -5% and the Z score was 0.64.
For `CC(C)(C)C1CNC(=O)C1C(=O)NCC1CCOCC1` (centres undefined), the “% Inhibition” value was 2% and the Z score was -0.27.
In the case of `CCOC(=O)C1CCC(Nc2ccc3c(c2)N(C(N)=O)CCC3)CC1` (centres undefined), the “% Inhibition” value is reported as 1% and the Z score is reported as -0.16.
`COCc1cc(CNC2C(C)C(OC)C2(C)C)ccc1F` (centres undefined) was tested, and the “% Inhibition” value was -4% and the Z score was 0.47.
`Cc1cc(C(=O)NCC(C)(C)C[C@H](C)O)no1` was tested, and the “% Inhibition” value was -3% and the Z score was 0.43.
In the case of `C[C@@H]1CN(Cc2ccc(C#CCO)cc2)CC[C@]1(C)O`, the “% Inhibition” value is reported as -26% and the Z score is reported as 3.33.
For `O=S(=O)(Nc1nc2n(n1)[C@H](c1ccc(Cl)cc1)C=C(c1ccccc1)N2)c1ccccc1`, the “% Inhibition” value was -7% and the Z score was 0.7.
`CCn1ccc(C(=O)NCCc2ncc(C)n2C2CCC2)n1` was tested, and the “% Inhibition” value was -8% and the Z score was 1.23.
In the case of `COc1ncccc1C(=O)N1CC(Nc2cccnn2)C1`, the “% Inhibition” value is reported as 2% and the Z score is reported as -0.37.
For `Cc1noc(C)c1CO[C@H]1COCC[C@@H]1NC(=O)Cn1nc2ccccc2n1`, the “% Inhibition” value was -7% and the Z score was 0.68.
`Cc1ccc(C)c(S(=O)(=O)N2CCC(c3nc(C(=O)N4CCOCC4)c(C)o3)CC2)c1` was tested, and the “% Inhibition” value was -1% and the Z score was 0.22.
With `CC1CCCCN1CCN1C(=O)c2ccc(-c3ccco3)n2CC1(C)C(=O)NC1CCCCCC1` (centres undefined) the “% Inhibition” value was -7% and the Z score was 0.69.
With `CC(CO)C(C)NC(=O)c1c(F)c(F)cc(F)c1F` (centres undefined) the “% Inhibition” value was -12% and the Z score was 1.81.
In the case of `CCOCc1nc(Cc2cccnc2)n(-c2ccc(S(N)(=O)=O)cc2)n1`, the “% Inhibition” value is reported as -12% and the Z score is reported as 1.79.
In the case of `Cc1ccc(C)c(S(=O)(=O)N2CCN3C(=O)[C@H](C(C)C)NC(=O)[C@H]3C2)c1`, the “% Inhibition” value is reported as -3% and the Z score is reported as 0.31.
With `COCc1csc(NC(=O)NCCc2ncc(C)s2)n1` the “% Inhibition” value was -12% and the Z score was 1.22.
With `COc1cc(C(=O)Nc2cccc(C)n2)ccc1OCc1c(Cl)cccc1Cl` the “% Inhibition” value was -14% and the Z score was 1.63.
`Cc1cc(C)c(-n2cccc2CNC2CCN(C)CC2)c(C)c1` was tested, and the “% Inhibition” value was 5% and the Z score was -0.85.
`O=C1N(CC2CCCCC2)CCC[C@@]1(O)CN1CCOCC1` was tested, and the “% Inhibition” value was -7% and the Z score was 1.35.
For `CN(C)S(=O)(=O)N(CC#N)Cc1ncc(Cl)cc1Cl`, the “% Inhibition” value was 5% and the Z score was -0.76.
`O=S(=O)(CCC(F)(F)F)NCCn1ccc(-c2cnccn2)n1` was tested, and the “% Inhibition” value was 14% and the Z score was -1.84.
In the case of `CC(C)[C@H]1NC(=O)[C@@H]2C[C@H](NC(=O)c3cccc4ccccc34)CN2C1=O`, the “% Inhibition” value is reported as -16% and the Z score is reported as 1.82.
For `Clc1ccccc1CNC[C@H]1Cn2ccnc2CO1`, the “% Inhibition” value was -9% and the Z score was 1.41.
In the case of `Cc1cc(CN(C)Cc2cc3cccnc3nc2C)n[nH]1`, the “% Inhibition” value is reported as -5% and the Z score is reported as 0.77.
`COc1cccn2ncc(C(=O)NC[C@]3(C)C[C@H]3c3ccccc3)c12` was tested, and the “% Inhibition” value was -10% and the Z score was 1.96.
`Cc1noc([C@H]2CCCN(C(=O)c3cc4ccccc4s3)C2)n1` was tested, and the “% Inhibition” value was 0% and the Z score was 0.02.
`CCN(C(=O)c1oc(C2CC2)nc1C)c1ccc(C(F)(F)F)cc1` was tested, and the “% Inhibition” value was -5% and the Z score was 0.99.
In the case of `Cc1nc(N)sc1CC(=O)N1CCn2nc(C(=O)N3CCCC3)cc2C1`, the “% Inhibition” value is reported as -14% and the Z score is reported as 1.93.
In the case of `CC[C@H](NC(=O)N(C)Cc1nccs1)c1ncnn1CC`, the “% Inhibition” value is reported as 1% and the Z score is reported as -0.22.
`Oc1cc(CNCCCN2Cc3ccccc3C2)nc2c(F)cccc12` was tested, and the “% Inhibition” value was 5% and the Z score was -0.86.
`COCCc1nc(-c2cc3ncccn3n2)n(CCO)n1` was tested, and the “% Inhibition” value was -8% and the Z score was 1.63.
For `Cn1nc(C(=O)N[C@H]2CCCc3ccccc32)ccc1=O`, the “% Inhibition” value was -4% and the Z score was 0.36.
`CC[C@@H](C(=O)Nc1ccccc1C(F)(F)F)n1nc(-c2ccc(OC)cc2)c2c(C)onc2c1=O` was tested, and the “% Inhibition” value was -9% and the Z score was 0.91.
`Cc1nnnn1-c1ccccc1Oc1ccc(F)cc1` was tested, and the “% Inhibition” value was -10% and the Z score was 0.98.
For `CC(=O)N1CCCN(C(=O)C[C@]2(c3ccccc3)CC(=O)N(CCCOc3cccnc3)C2=O)CC1`, the “% Inhibition” value was 8% and the Z score was -1.08.
For `COC(=O)COc1cc(-c2ccc(Cl)cc2)nc2ccc(NC(=O)Nc3ccccc3C)cc12`, the “% Inhibition” value was 8% and the Z score was -0.91.
`CC(=O)N[C@@H](Cc1c[nH]c2ccccc12)C(=O)N1CCN(S(=O)(=O)c2ccccc2)CC1` was tested, and the “% Inhibition” value was 17% and the Z score was -2.38.
For `CN1CCN([C@@H]2[C@H](O)[C@H](CO)O[C@@H]2CNC(=O)Nc2ccccc2)CC1`, the “% Inhibition” value was 34% and the Z score was -3.84.
In the case of `c1ccc(C2(c3nnc(CC4CCCCC4)o3)CCOCC2)cc1`, the “% Inhibition” value is reported as -15% and the Z score is reported as 2.41.
`CCCCCN1CC(=O)N[C@@H]1c1ccc(OC)c(C#N)c1` was tested, and the “% Inhibition” value was -5% and the Z score was 0.95.
With `Cc1nc(CNC(=O)N2CCC[C@H](CC(C)C)C2)oc1C` the “% Inhibition” value was -2% and the Z score was 0.24.
With `CC(C)O[C@H]1CN(C(=O)COc2ccc(Cl)cc2Cl)C[C@@H]1O` the “% Inhibition” value was 7% and the Z score was -1.02.
With `Cc1c(NC(=O)[C@@H](N)Cc2ccccc2)cccc1-c1nncn1C` the “% Inhibition” value was -3% and the Z score was 0.66.
With `c1ccc(CN2CCN(C3CCCCCC3)CC2)nc1` the “% Inhibition” value was 4% and the Z score was -0.78.
With `Cc1cccc(OC[C@@H](O)CN(C(=O)NCCCn2ccnc2)C(C)C)c1` the “% Inhibition” value was -2% and the Z score was 0.32.
For `C[C@@H]1CN(CCN(C)C(=O)c2cc(F)cc(Cl)c2O)C[C@H](C)O1`, the “% Inhibition” value was -6% and the Z score was 1.14.
`Cc1cc(-n2ccnc2)ccc1COC(=O)c1ncccc1OCC(F)(F)F` was tested, and the “% Inhibition” value was -8% and the Z score was 1.52.
`O=C(O)c1cn2c(n1)[C@@H](c1ccccc1)N(C(=O)COc1ccccc1)CC2` was tested, and the “% Inhibition” value was -8% and the Z score was 1.23.
In the case of `Cc1cccc2c1NC1(CCN(C(=O)Nc3ccc(Cl)c(Cl)c3)CC1)NC2=O`, the “% Inhibition” value is reported as 11% and the Z score is reported as -2.18.
With `CNC(=O)CCCN(C)C(=O)Cc1ccc(C)c(Br)c1` the “% Inhibition” value was -7% and the Z score was 0.93.
In the case of `CC(C)NC(=O)OC1CN(C(=O)c2cc(-c3ccc(F)cc3)[nH]n2)C1`, the “% Inhibition” value is reported as 10% and the Z score is reported as -1.04.
`O=S1(=O)CC[C@H](c2csc(Cc3cccc(F)c3)n2)C1` was tested, and the “% Inhibition” value was -12% and the Z score was 1.92.
For `CCCCn1nc(-c2ccncc2)nc1CN1CCC[C@H](O)C1`, the “% Inhibition” value was -10% and the Z score was 1.17.
`COc1ccc(CN(Cc2ccco2)C(=O)c2ccccc2C)cc1OCc1nc(CO)cs1` was tested, and the “% Inhibition” value was -2% and the Z score was 0.3.
In the case of `CC[C@H](C)N(Cc1ccc(OS(C)(=O)=O)cc1)C(=O)NC(C)(C)C`, the “% Inhibition” value is reported as 3% and the Z score is reported as -0.44.
`CCn1cnnc1CCNC(=O)[C@@H]1Cc2ccccc2C(=O)N1` was tested, and the “% Inhibition” value was -7% and the Z score was 1.44.
